Results taken from PubChem BioAssay AID463173 (ICCB-Longwood Screening Facility, Harvard Medical School, 2010).
Among all 52,000 compounds or so, about 1,700 (3.3%) were called active. No stated cut-off is given here; in the data, active means survival mostly below about 52% (no sharp cut-off); inactive means mostly above about 56%. The list shows a part of the results.

The molecules below were run on Wild type (assay: growth inhibition of S. aureus wild type versus tarO mutant, primary screen, teichoic acid synthesis inhibitors, RN4220, OD600 (AID 463173)). Conditions: S. aureus RN4220 wild type/DeltatarO growth, OD600, 18 h, stronger effect = lower value, screened at 18.75 µg/mL (by protocol).

| SMILES | survival |
| --- | --- |
| Cc1nc2ccccc2n1CCc1nc2c3ccccc3nc(SCc3ccccc3F)n2n1 | inactive: 66% |
| CCCc1nnc(NC(=O)CSc2nnc3c4ccccc4n(CC)c3n2)s1 | inactive: 88% |
| CCc1ccc(CNC(=O)c2ccc(Cn3c(=O)c4cccn4c4cccnc43)cc2)cc1 | inactive: 87% |
| CCc1cccc(C)c1NC(=O)c1cc(CN2CCCC2)on1 | inactive: 72% |
| CC(C)NC(=O)C1CCCN(S(=O)(=O)c2ccc3c(ccn3C)c2)C1 (centres undefined) | inactive: 78% |
| Cc1ccc(OCCCC(=O)Nc2sc3c(c2C(N)=O)CCC(C)C3)cc1 (centres undefined) | inactive: 148% |
| COCCn1c(C)cc(O)c(C(c2cccc(F)c2)N2CCN(c3ccccc3)CC2)c1=O (centres undefined) | inactive: 78% |
| CCOc1ccc(C(=O)N2CC(=O)Nc3ccc(F)cc3C2c2ccc(F)cc2)cc1 (centres undefined) | inactive: 143% |
| COc1ccc(N(CC(=O)N2CCN(c3cccc(Cl)c3)CC2)S(=O)(=O)c2c(C)noc2C)cc1 | inactive: 84% |
| COc1ccc(-c2oc3ncn4nc(COc5ccc(Cl)cc5)nc4c3c2-c2ccc(OC)cc2)cc1 | inactive: 79% |
| CCc1nnc2c(Nc3cc(OC)c(Cl)cc3OC)nc3ccccc3n12 | inactive: 94% |
| CCCCc1nc(Cl)c(C#N)c2c1COC(C)(C)C2 | inactive: 115% |
| O=C(Nc1ccc2oc(-c3cccc4c(Br)cccc34)nc2c1)c1cccc(Cl)c1 | inactive: 134% |
| Cc1cc(C)cc(-n2ccn3cnnc3c2=O)c1 | inactive: 68% |
| Cc1ccc(OCC(=O)OCc2cc(=O)n3nc(C4CC4)sc3n2)cc1C | inactive: 82% |
| CCC(C(=O)NCCc1ccc(OC)c(OC)c1)n1nc(C)c2sc3ccccc3c2c1=O (centres undefined) | inactive: 79% |
| O=C(NC1CCCC1)C(c1cccnc1)N(CCc1ccccc1)C(=O)c1ccco1 (centres undefined) | inactive: 104% |
| CC(C)(C)C1CCc2c(sc(NC(=O)c3cc(-c4ccc(F)cc4)on3)c2C#N)C1 (centres undefined) | inactive: 134% |
| CCCN(c1ccccc1F)S(=O)(=O)c1cc(-c2cc(C)no2)ccc1C | inactive: 71% |
| CCc1ccc2occ(CC(=O)Nc3c(C(=O)c4ccc(F)cc4)oc4ccccc34)c2c1 | inactive: 81% |
| COc1ccc(C)cc1NC(=O)Cn1c(=O)oc2cc(S(=O)(=O)N3CCCCCC3)ccc21 | inactive: 83% |
| CSc1cccc(Nc2cc(C(=O)NC3CCCCC3)c3ccccc3n2)c1 | inactive: 142% |
| CCCCCCSc1nc(N)c2c3c(sc2n1)CCCC3C (centres undefined) | active: -2% |

| SMILES | survival |
| --- | --- |
| Cn1nc(-c2ccccc2)c(-c2ccccc2)c(C(=O)Nc2ccccc2C(N)=O)c1=O | inactive: 110% |
| Cc1cc(C)cc(N2C(=O)CSC23C(=O)N(CC(N)=O)c2ccccc23)c1 (centres undefined) | inactive: 68% |
| CN(C)c1ccc(-c2nc3ccc(Cl)cn3c2Nc2ccc3c(c2)OCCO3)cc1 | inactive: 138% |
| CCCN(CCC)c1cc(C)nc2nc(-c3ccc(C(C)(C)C)cc3)nn12 | inactive: 111% |
| Cc1ccc(C)c(N2CCN(C3(c4ccccc4)C(=O)c4ccccc4C3=O)CC2)c1 | inactive: 99% |
| CCOCCCNC(=O)Cn1ncc2c([nH]c3ccc(C)cc32)c1=O | inactive: 51% |
| COCCN(Cc1ccc(C)c(Br)c1)S(=O)(=O)c1ccc2[nH]c(=O)ccc2c1 | active: -3% |
| CCC(C)(C)NC(=O)Cn1c(-c2ccc(C)cc2)noc1=O | inactive: 113% |
| CC(=O)N1CCc2cc(Br)cc(S(=O)(=O)CCC(=O)N3CCN(c4cccc(C)c4C)CC3)c21 | inactive: 77% |
| CCOC(=O)c1ccc(NC(=O)c2cc(=O)c3ccc(C)c(C)c3o2)cc1 | inactive: 86% |
| CC1CCCCC1NC(=O)Cn1nnc(-c2ccc(N(C)C)cc2)n1 (centres undefined) | inactive: 108% |
| Cn1c(SCC(=O)N2CCCc3ccccc32)nnc1-c1ccccc1N | inactive: 102% |
| Cc1ccc(-n2ncc3c(Nc4ccc(Oc5ccccc5)cc4)ncnc32)cc1 | inactive: 74% |
| Cc1cc(=O)[nH]c(SCC(=O)OCc2ccccc2)c1C#N | inactive: 109% |
| CCc1ccccc1NC(=O)N1CCN(Cc2nc3ccc(C)cc3o2)CC1 | inactive: 69% |
| CCSc1nnc(COc2ccccc2)n1CC | inactive: 96% |
| Cc1cccc(N2CCN(C(=O)c3cc4ccc5cccnc5c4[nH]3)CC2)c1C | inactive: 73% |
| Cc1c(C(=O)Nc2cccc(C(F)(F)F)c2)sc2nc3n(c(=O)c12)CCC3 | inactive: 74% |
| Cc1cccc(Cn2cc3c(=O)n(CC(=O)Nc4cccc(C)c4C)nc-3c3cc(F)ccc32)c1 | inactive: 87% |
| CC(C)Cc1nn2c(=O)cc(COC(=O)c3cccc(NC(=O)c4ccccc4)c3)nc2s1 | inactive: 70% |
| COc1ccc(NC(=O)c2cc(C3CC3)nc3c2c(C)nn3-c2ccccc2)c(OC)c1 | inactive: 32% |
| CCCN(CCC)CCNC(=O)c1cc2c(=O)oc3ccc(C)cc3c2s1 | inactive: 88% |
| CCOCCCNC(=O)Cn1ncc2c([nH]c3ccccc32)c1=O | inactive: 76% |

| SMILES | survival |
| --- | --- |
| CCOc1ccc(/C=C/c2nc(C#N)c(NCc3ccc(OC)cc3)o2)cc1 | inactive: 75% |
| Cc1noc(C)c1S(=O)(=O)N(CC(=O)Nc1ccc(C(F)(F)F)cc1)c1ccc(C(C)C)cc1 | inactive: 85% |
| O=C1CC2(Oc3ccccc3O2)C(=O)NN1 | inactive: 119% |
| Clc1ccccc1CNCCCSc1nnnn1-c1ccccc1 | inactive: 84% |
| COC(=O)c1ccc(NC(=O)C(=O)NCCc2csc3nc(-c4ccccc4F)nn23)cc1 | inactive: 60% |
| O=C1C2C3C=CC(C3)C2C(=O)N1CCN1CCN(S(=O)(=O)c2ccc(Br)cc2)CC1 (centres undefined) | inactive: 115% |
| CCOC(=O)N1CCN(Cc2nc3cc(NC(=O)CC(C)C)ccc3n2C(C)C)CC1 | inactive: 92% |
| CCN(CC)S(=O)(=O)c1ccc2c(c1)N(CC(=O)Nc1cccc(C)c1C)C(=O)C1CCCN21 (centres undefined) | active: -4% |
| COc1cccc(-c2noc(-c3cc4ccccc4oc3=O)n2)c1OC | inactive: 101% |
| O=C(NCc1ccc2c(c1)CCN2C(=O)c1ccc(F)cc1)c1c(F)cccc1F | inactive: 87% |
| COc1ccc(C)cc1NC(=O)CSc1ncc2c(n1)-c1ccc(Cl)cc1N(Cc1ccccc1)S2(=O)=O | inactive: 73% |
| Nc1nonc1-c1nc2ccccc2n1CC(=O)Nc1cccc(C(F)(F)F)c1 | inactive: 120% |
| Cc1ccc(NC(=O)CCN2C(=O)c3ccccc3Sc3ncccc32)cc1 | inactive: 76% |
| COc1cc(OC)c(NC(=O)C(CC(C)C)N2Cc3ccccc3C2=O)cc1Cl (centres undefined) | inactive: 124% |
| CCOc1ccccc1NC(=O)CSc1cn(CC(=O)N2CCCCCC2)c2ccccc12 | inactive: 93% |
| NC(=O)C1CCN(C(c2ccccc2)c2nnnn2Cc2ccccc2)CC1 (centres undefined) | inactive: 104% |
| CC1=C(C(=O)Nc2ccccc2)C(c2ccc(F)cc2)n2nc(SCc3cc(C)ccc3C)nc2N1 (centres undefined) | inactive: 113% |
| CCOC(=O)Cn1nnnc1C(CC)N(Cc1cccnc1)Cc1cc2cc(C)ccc2[nH]c1=O (centres undefined) | inactive: 112% |
| CCOc1cccc2sc(NC(=O)CS(=O)(=O)c3ccc(C)cc3)nc12 | inactive: 72% |
| CCOc1ccc(CCNC(=O)c2cnc3sc(N4CCCCC4)nn3c2=O)cc1 | inactive: 68% |
| COC(=O)Cc1c(C)nc2nc(-c3ccc(C)cc3)[nH]n2c1=O | inactive: 89% |
| COc1ccc(N2C(=O)CSC23C(=O)N(CC(N)=O)c2ccccc23)cc1 (centres undefined) | inactive: 84% |
| CCN(Cc1ccccc1)S(=O)(=O)c1ccc(F)c(C(=O)Nc2cc(C(F)(F)F)ccc2Cl)c1 | active: -1% |

| SMILES | survival |
| --- | --- |
| CC(C)c1ccc(N2C(=O)N(Cc3ccccc3Cl)c3ccccc3S2(=O)=O)cc1 | inactive: 68% |
| COc1ccc(-n2c(=O)c3sc4ccccc4c3n(CC(=O)NC3CCCCC3)c2=O)cc1 | inactive: 88% |
| O=C(Nc1cc(C(F)(F)F)ccc1Cl)c1cnn(-c2ccccc2)c1-n1cccc1 | active: -3% |
| COC(=O)c1ccc([C@H]2Nc3ccc(S(=O)(=O)Nc4cccc(C)c4)cc3[C@H]3C=CC[C@H]32)cc1 | inactive: 68% |
| N#C/C(=C\c1cn(CC(=O)NCC2CCCO2)c2ccccc12)C(=O)N1CCCC1 (centres undefined) | inactive: 110% |
| COc1ccccc1C1CC(=O)N(c2cccc(C(F)(F)F)c2)C2=C1C(=O)OC2 (centres undefined) | inactive: 73% |
| CCCCOc1ccc(C(=O)N(Cc2ccco2)Cc2ccco2)cc1 | inactive: 108% |
| COc1ccc(-n2c(=O)c3c(c4cc(OC)ccc4n3C)n(CCC(C)C)c2=O)cc1 | inactive: 112% |
| COCCNC(=O)CCCn1c(SCc2ccccc2Cl)nc2c(sc3ccccc32)c1=O | inactive: 152% |
| COc1ccc(OCC(=O)Nc2ccc(-c3nc4ncccc4o3)cc2)cc1 | inactive: 119% |
| Cc1cc(Br)cc2c(C(=O)OCC(=O)c3ccccc3)cc(-c3ccccc3)nc12 | inactive: 128% |
| Cc1c(-c2nnc(SCC(=O)Nc3ccc(Cl)cc3)o2)nnn1-c1ccc(F)cc1 | inactive: 72% |
| O=S(=O)(c1ccccc1)N1CCC(O)(c2ccccc2)C2CCCCC21 (centres undefined) | inactive: 125% |
| Cc1cccc(N(CC(N)=O)C2SC(=O)N(Cc3cccc(C(=O)O)c3)C2=O)c1 (centres undefined) | inactive: 70% |
| CCC(=O)Nc1nnc2n1CCS2 | inactive: 77% |
| CCN1CCSc2ccc(C(=O)NCc3ccccc3Br)cc21 | inactive: 84% |
| Cc1cc(CN2CCN(c3ccc(F)cc3)CC2)cs1 | inactive: 86% |
| O=c1[nH]c(SCc2cccc(Cl)c2)nc2c1CCC2 | inactive: 91% |
| O=S(=O)(NC1CCCCC1)c1cc(Cl)ccc1Cl | inactive: 118% |
| COc1ccccc1N1CCN(C(=O)c2cnc(N3CCOCC3)c3ccccc23)CC1 | inactive: 85% |
